According to PubChem BioAssay AID686978 (National Center for Advancing Translational Sciences (NCATS), 2013):
Where “and” joins values, the source holds several entries; their conditions need not be identical. Equal entries are not always repeated. Screen size: about 420,000 compounds; about 64,000 (15%) were called active. This list was built around the results that the source calls inconclusive (neither active nor inactive); the mix of calls is not that of the screen. The call rests on the fitted dose curve; in most records, active means well fitted inhibition curve with a large enough effect; inconclusive means small, poorly fitted or top-dose-only effect; inactive means flat fitted curve, though single readings scatter. Potencies beside an inconclusive call are fits to weak or partial responses and may not hold up.

Experiment: qHTS for Inhibitors of human tyrosyl-DNA phosphodiesterase 1 (TDP1): qHTS in cells in absence of CPT; further: nearly all actives have a fitted effect of over 55% in size
Details: DT40 Tdp1-/- hTDP1 cells, no CPT, ATP luminescence, 48 h; activity change, negative = growth inhibition: at 46.2 µM (top of the series) unless noted
Outline: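 Growth kinetics read by CellTiter-Glo luminescence after ≥48 hr at 37 °C. Cells: DT40 Tdp1-/- stably carrying human TDP1, 400 per well, compound exposure in the absence of CPT (DMSO vehicle).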
On the % scale 0 is the no-effect control and ±100 the full control effect; potency means the concentration at half of the fitted maximal effect; tags describe the fitted curve by direction and shape.

Compound	Potency	activity change, negative = growth inhibition
COc1ccc(NC(=O)Cn2nnc(C(=O)NCc3ccc4c(c3)OCO4)c2N)c(OC)c1	inconclusive: 23.1 µM [inhibitor, single point]	–
COc1ccccc1NC(=O)NNC(=O)c1ccc2ccccc2c1O	inactive	–
O=C(NCc1ccco1)C1CCN(Cc2ccc(F)cc2)CC1	inconclusive: 6.51 µM [inhibitor, single point]	–
O=C(COc1cc(Cl)c(Cl)cc1Cl)NCCN1CCOCC1	–	inconclusive: -30.3% [inhibitor]
Cc1nonc1C(=O)N/N=C/c1ccc(O)c(O)c1	inconclusive: 29.1 µM [inhibitor, single point]	–
O=c1ccc2cc(S(=O)(=O)N3CCN(c4ccccc4F)CC3)ccc2[nH]1	inconclusive: 29.1 µM [inhibitor, single point]	–
COc1cc2ccc3c(CCN(C)C)cc(OC)c(OC)c3c2cc1OC	inconclusive: 29.1 µM [inhibitor, single point]	–
CCN(CC)C(=O)[C@H]1CC(CC(=O)NC/C=C(\C)CCC=C(C)C)C(=O)N2CCc3c([nH]c4ccccc34)[C@]12C (some centres undefined)	inconclusive: 16.4 µM [inhibitor, single point]	–
CCC1(c2ccccc2)NC(=O)N(CC(=O)Nc2cc(S(=O)(=O)N3CCOCC3)ccc2OC(C)C)C1=O (centres undefined)	inconclusive: 23.1 µM [inhibitor, single point]	–
CC(=O)C[C@H](O)CC(=O)[C@H]1OC(=O)[C@H](C)C/C=C\Cc2ccccc21	inactive	–
Cc1ccc2c(c1)C1CC(C)(O2)N(c2cccc(C(=O)N3CCN(c4ccccn4)CC3)c2)C(=O)N1 (centres undefined)	inconclusive: 23.1 µM [inhibitor, single point]	–
CNc1ncnc2c1ncn2[C@H]1CN(CCOC)C[C@@H](CO)O1	inconclusive: 6.51 µM [inhibitor, single point]	–
Cc1ccc(C)c(NC2=C(Cl)C(=O)OC2OC(=O)c2ccco2)c1 (centres undefined)	active: 23.1 µM	–
COc1ccc(NC(=O)C2CCN(C(=O)N3CCOc4ccccc43)CC2)cc1	inconclusive: 29.1 µM [inhibitor, single point]	–
Cc1ccc2occ(CC(=O)Nc3ccc(S(=O)(=O)N4CCCC(C)C4)cc3)c2c1 (centres undefined)	inconclusive: 23.1 µM [inhibitor, single point]	–
O=C(c1ccco1)N1CCN(S(=O)(=O)c2ccc3c(c2)CCN3C(=O)C2CCC2)CC1	inconclusive: 15.8 µM [inhibitor, single point]	–
CCOCCCN(C(=O)c1snc(C(N)=O)c1N)C(C(=O)NCCC(C)C)c1ccc(Cl)cc1 (centres undefined)	inconclusive: 4.61 µM [inhibitor, single point]	–
S=c1[nH]nc(-c2cc(-c3ccco3)[nH]n2)n1-c1ccccc1Cl	inactive	–
COc1cc(N)c(Cl)cc1C(=O)OC(C)C(=O)Nc1cccc(S(=O)(=O)N2CCOCC2)c1 (centres undefined)	inconclusive: 29.1 µM [inhibitor, single point]	–
COc1ccc(NC(=O)CN2C(=O)CSc3ccc(S(=O)(=O)N(C)C)cc32)cc1Cl	inconclusive: 8.2 µM [inhibitor, partial curve]	–

Compound	Potency	activity change, negative = growth inhibition
CCCCn1cnc2sc3c(c2c1=N)CCCC3	inconclusive: 29.1 µM [inhibitor, single point]	–
Cc1ccc(-n2ncc(C(=O)NCc3ccccn3)c2C2CCN(C(=O)OC(C)(C)C)CC2)c(C)c1	active: 20.6 µM	–
Cc1ccc(Cn2nnc(C(=O)Nc3cccc(C)c3C)c2N)cc1	active: 20.6 µM	–
Cc1ccc(C)c(NC(=O)c2ccccc2Sc2ccc([N+](=O)[O-])cc2Cl)c1	inconclusive: 29.1 µM [inhibitor, single point]	–
CCCCCCN1CCN(C2CN(Cc3cn(Cc4cccc(Cl)c4)nn3)S(=O)(=O)C2)CC1 (centres undefined)	inconclusive: 25.9 µM [inhibitor, single point]	–
Cc1ncc2c(c1CNS(=O)(=O)c1cccs1)CCN(C(=O)/C=C/c1cc(F)cc(F)c1)C2	active: 23.1 µM	–
CN(C)CCCNC(=O)C[C@H]1C[C@H](C(=O)N2CCOCC2)[C@@]2(CCC3CCCC3)c3[nH]c4cc(-c5ccco5)ccc4c3CCN2C1=O	inconclusive: 29.1 µM [inhibitor, single point]	–
COc1ccc(CNC(=O)CCCn2c(=O)c3cccn3c3ccc(F)cc32)cc1OC	active: 18.4 µM	–
NS(=O)(=O)c1ccc(CNC(=O)CCCSc2ccccc2)cc1	–	inconclusive: -34.9% [inhibitor]
CC(C(=O)c1ccccc1)[n+]1cccc(Br)c1 (centres undefined)	inactive and inconclusive: 22.4 µM [inhibitor, single point]	–
Cc1ccc(S(=O)(=O)N2C[C@H]3n4c(=O)ccc(=O)n4C[C@H](OC(=O)NC4CCCC4)[C@@]3(O)C2)cc1	inconclusive: 29.1 µM [inhibitor, single point]	–
O=c1cc(-c2ccccc2)[nH][nH]1	inconclusive: 4.11 µM [inhibitor, full curve, poor fit]	–
COC(=O)C1=C(C)N(Cc2ccccc2)C(=NCCc2c[nH]c3ccccc23)N[C@H]1c1cccc(C(F)(F)F)c1	active: 16.4 µM	–
CCn1cc(C(=O)O)c(=O)c2cc(F)c(N3CCN(S(=O)(=O)c4ccc5c(c4)OCCO5)CC3)cc21	inconclusive: 23.1 µM [inhibitor, partial curve, poor fit]	–
Cc1cc(C)nc(SCC(=O)c2cc3ccccc3oc2=O)n1	inconclusive: 11.6 µM [inhibitor, partial curve, poor fit]	–
COc1ccc(CNC2CCN(Cc3ccccc3)CC2)cc1	inconclusive: 29.1 µM [inhibitor, single point]	–
CCNC(=O)/C(C#N)=C/c1c(N(Cc2ccccc2)Cc2ccccc2)nc2ccccn2c1=O	inconclusive: 20.6 µM [inhibitor, partial curve, poor fit]	–
O=C(COC(=O)c1cc(Cl)ccc1O)NNC(=O)c1ccc([N+](=O)[O-])cc1	inactive	–
COc1c(O)c(O)c2oc(-c3ccccc3)cc(=O)c2c1OC	inconclusive: 23.1 µM [inhibitor, single point]	–
